# Source: PubChem BioAssay AID1347417 (National Center for Advancing Translational Sciences (NCATS), 2020)
# In all, about 120,000 compounds went through this assay and about 5,300 (4.4%) were called active. Inconclusive means that the source gave no clear call. Such entries were picked first, then a sample of the others. Calls follow the shape of the dose curve; as a rule, active = well fitted inhibition curve with a large enough effect; inconclusive = small, poorly fitted or top-dose-only effect; inactive = no such curve, though single readings can be large or run the other way. Where the call is inconclusive, the potency comes from a doubtful curve fit.
# Experiment: qHTS Primary assay for Inhibitors of Plasmodium falciparum Dd2 growth in vitro; also: nearly all actives have a fitted effect of over 65% in size;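 as to activity, negative = inhibition: plate controls were DMSO vehicle for no effect and reference drug for full effect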
# Conditions: P. falciparum Dd2 growth, SYBR Green, 72 h; activity, negative = inhibition: at 28.9 µM (top of the series) unless noted; series mostly up to 28.9 µM
# In short: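 Readout: SYBR Green fluorescence, 485 nm excitation, 535 nm emission, after ~16 h lysis at 37C. Before that, Dd2-infected red cells (2.5% hematocrit) grew 72 h with compound, 29 uM top final concentration.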
# Potency is read from the fitted curve at half-maximal effect; tags tell the direction and shape of the fitted curve.
Compound,Potency,"activity, negative = inhibition"
COc1ccc(CN2C(=O)[C@@H]3C[C@@H](CN3CC3CC3)Oc3ccccc32)cc1,"inconclusive: 22.4 µM [inhibitor, single point]",–
Cc1ccc(CN2COc3c(Cl)cc4c(-c5ccccc5)cc(=O)oc4c3C2)cc1,"inconclusive: 4.47 µM [inhibitor, partial curve, poor fit]",–
COC[C@H]1CCCN1Cc1nc(C2(O)CCN(C3CCN(C)CC3)CC2)cs1,inactive,–
Cc1cc(C)n(CCC(=O)NCCc2noc(-c3ccccc3)n2)n1,inactive,–
COc1cc(-c2nc3ccc(Cl)cn3c2Nc2ccc3c(c2)OCCO3)ccc1O,"inconclusive: 12.6 µM [inhibitor, single point]",–
O=C(c1ccc2c(c1)N(Cc1ccc(Cl)cc1)C(=O)c1ccccc1S2(=O)=O)N1CCN(c2ccccn2)CC1,"inconclusive: 3.55 µM [inhibitor, single point]",–
O=C(Nc1cc(Cl)cc(Cl)c1)c1ccc(F)c(S(=O)(=O)N2CCN(c3ccccc3F)CC2)c1,"inconclusive: 11.2 µM [inhibitor, single point]",–
CC(=O)c1ccc(N2CCN(c3ncnc4c3cnn4-c3cc(Cl)ccc3C)CC2)cc1,active: 11.2 µM,–
O=C(c1ccc(Cl)cc1)N1CCC2(C1)C(=O)N(c1ccccc1)c1ccccc12 (centres undefined),"inconclusive: 10 µM [inhibitor, single point]",–
O=C1CCCN1C1CCN(Cc2cccnc2)CC1,inactive,–
CCOc1ccccc1NC(=O)c1c(NC(=O)Cc2ccc(OC)cc2)sc2c1CCC2,"inconclusive: 17.8 µM [inhibitor, single point]",–
CCc1cccc(NC(=O)c2ccc3c(c2)c(C)c(C)n3Cc2ccc(F)cc2)c1,"inconclusive: 10 µM [inhibitor, single point]",–
CCOc1ccc(CC(=O)N2CCN(c3cc(-c4ccc(Cl)cc4)[nH]n3)CC2)cc1,"inconclusive: 0.224 µM [inhibitor, full curve, poor fit]",–
COc1ccc(-c2nc(SCC(=O)NCc3ccccc3Cl)n[nH]2)cc1,inactive,–
O=C(c1cccc(Cl)c1)N1C[C@@H](CO)[C@H](c2ccccn2)C1,inactive,–
COCCOc1cc(-c2noc([C@@H]3CCCN3Cc3ccc(NC(C)=O)cc3)n2)ccn1,"inconclusive: 12.6 µM [inhibitor, single point]",–
COc1ccc(N2CCN(C(=O)CCn3ccn4nc5c(c4c3=O)CCCC5)CC2)cc1,"inconclusive: 11.2 µM [inhibitor, single point]",–
CCCc1noc(-c2cccn3c(CNC(=O)c4ccc5cc[nH]c5c4)nnc23)n1,"inconclusive: 1.26 µM [inhibitor, partial curve, poor fit]",–
Cc1ccc(Cl)cc1N(C)C(=O)C1CCCN(c2ncnc3onc(-c4ccc(F)cc4)c23)C1 (centres undefined),active: 8.91 µM,–
COCCn1cc2c3c(cccc31)CN(C(=O)c1ccc(C)c(C)c1)CC2,"inconclusive: 2.24 µM [inhibitor, partial curve]",–
O=C1NC2(CCCN(C(=O)c3ccc4c(c3)OCO4)C2)COc2ccccc21 (centres undefined),"inconclusive: 11.2 µM [inhibitor, single point]",–
CCN(CC)[C@H]1C[C@@H](Cc2cc(CO)on2)C1(C)C,inactive,–

Compound,Potency,"activity, negative = inhibition"
CCN1CCCCC12Cc1ccccc1CN(C(=O)Cc1ccccc1)C2 (centres undefined),"inconclusive: 5.62 µM [inhibitor, partial curve]",–
NC(=O)COc1ccc(C(=O)N[C@@H]2CN(C(=O)Nc3cccc(C(F)(F)F)c3)CCC[C@H]2O)cc1,inactive,–
COc1ccccc1NC(=O)Cn1c(C)ccc(NS(=O)(=O)c2ccccc2)c1=O,active: 1.41 µM,–
CCOC(=O)CCc1c(C)nc2c(c(C)nn2-c2ccc(C)cc2)c1C,inactive,–
Cc1ncsc1C(=O)N1CCC(C(=O)O)(n2ccc(-c3ccco3)n2)CC1,inactive,–
CN(Cc1ccccn1)c1ccc(-c2nc(Cc3ccc(F)cc3)no2)cn1,inactive,–
O=C(Cn1nc(-c2ccc(Cl)cc2)ccc1=O)NCCc1ccccc1,"inconclusive: 5.62 µM [inhibitor, partial curve]",–
CCc1nc2nccc(-c3ccc(OC)cc3)n2n1,inactive,–
CCNC(=O)C1CCN(C(=O)c2ccc3nc(-c4ccccc4)cn3c2)C1 (centres undefined),inactive,–
CC(=O)Nc1nonc1-c1nnc(SCC(=O)Nc2ccc(C)c(Cl)c2)n1C,inactive,–
CCOc1ccc2c(c1)c(=O)c(S(=O)(=O)c1ccc(C)cc1)cn2Cc1ccccc1Cl,active: 12.6 µM,–
CCCOc1ccc(C2c3c(oc4ccc(F)cc4c3=O)C(=O)N2CCc2ccc(OC)cc2)cc1 (centres undefined),–,inconclusive: -93.8% [inhibitor] [at 5.79 µM]
CC1CCCN1C(=O)c1cn2cc(-c3cccc(Cl)c3)n(CC3CC3)c(=O)c2n1 (centres undefined),"inconclusive: 7.94 µM [inhibitor, partial curve, poor fit]",–
O=C(CSc1oc(-c2ccc(F)cc2)nc1S(=O)(=O)c1ccc(Br)cc1)NC1CCCCC1,inactive,–
O=C(CCc1nc(-c2ccccc2)no1)NC1CCCN(CCCc2ccccc2)C1 (centres undefined),active: 7.08 µM,–
CCn1ncc(N2CCCC(CC(=O)Nc3ccc(Cl)cc3)C2)cc1=O (centres undefined),inactive,–
CCCCN(CC)C(=O)CCCn1c(=O)c2cccn2c2ccccc21,"inconclusive: 20 µM [inhibitor, single point]",–
N#Cc1cccc(CN2CC[C@H](c3nc4ccccc4o3)C2)c1,"inconclusive: 31.6 µM [inhibitor, single point]",–
CC(C)CCNC(=O)c1cccc2c1CCN2S(=O)(=O)c1ccccc1F,"inconclusive: 12.6 µM [inhibitor, single point]",–
COc1ccc(NC(=O)C2CCCN(S(=O)(=O)c3cccc4nonc34)C2)cc1Cl (centres undefined),inactive,–
Clc1cccc(-n2cc(-c3ccccc3)c3c(NC4CCCC4)ncnc32)c1,"inconclusive: 12.6 µM [inhibitor, single point]",–
COc1ccccc1NC(=O)CSc1nc2c(oc3ccccc32)c(=O)n1Cc1ccco1,"inconclusive: 10 µM [inhibitor, single point]",–
